For this assay, the target named is T1, human parkin ubiquitin-like domain (residues 1-77) (human, UniProt O60260 1-77).
T1 sequence (looked up): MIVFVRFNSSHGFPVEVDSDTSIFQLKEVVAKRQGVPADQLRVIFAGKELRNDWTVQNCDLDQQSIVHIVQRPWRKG
The experiment in a line: NMR titration.

B1: ataxin-3 fragment containing all three UIM sequences ([…], UIM_123) (domain or fragment)
chain: not shown
On to B1, for which the “KD of each UIM site (model of three identical binding sites)” value turned out to be 669 ± 62 µM.
